Toxic doses and inconclusive results are not listed. Not every entry of the source has a single result; some have several. The other results are left out here. There may be further records. The values listed for one entry repeat one measurement across runs, samples, wells, individuals or studies.
System: BDF1 mice, L1210/MTX-resistant leukemia ip, survival T/C
Test: NCI In Vivo Anticancer Drug Screen. Data for tumor model L1210 Leukemia resistant to Methotrexate; NSC 740 (intraperitoneal) in B6D2F1 (BDF1) mice
Settings: endpoint: mean survival time, higher = longer survival
Procedure: The antitumor activity of compounds was measured in mice bearing transplantable tumors. Survival or tumor size were measured and the results are expressed as the measurement made in the treated group (T) divided by the measurement made in the vehicle treated control group (C). The tumor model used in this assay is L1210 Leukemia resistant to Methotrexate; NSC 740 (intraperitoneal) in B6D2F1 (BDF1) mice

With `O=C(Nc1ccc(C2=NCCN2)cc1)c1cccc(C(=O)Nc2ccc(C3=NCCN3)cc2)c1` the T/C (dose: 25.0 mg/kg/injection, schedule: Q01DX Z (ip), vehicle: methylcellulose (MC)) was 90 % of control and 159 % of control.

In the case of `O=C(Nc1ccc(C2=NCCCN2)cc1)c1ccc(C(=O)Nc2ccc(C3=NCCCN3)cc2)cc1`, the T/C (dose: 1.0 mg/kg/injection, schedule: Q01DX010 (ip), vehicle: other) was 106 % of control and 168 % of control.

`O=NN(CCCl)C(=O)NCCCl` was tested, and the T/C (dose: 6.25 mg/kg/injection, schedule: Q01DX010 (ip), vehicle: saline) was 118 % of control and 182 % of control.

— PubChem BioAssay AID284 (DTP/NCI, 2004)
